# Reference: PubChem BioAssay AID463173 (ICCB-Longwood Screening Facility, Harvard Medical School, 2010)
# Screen size: about 52,000 compounds; about 1,700 (3.3%) were called active. Rule as the data show it: active = survival mostly below about 52% (no sharp cut-off); inactive = mostly above about 56%. The list shows a part of the results.
# Test system: Wild type
# Assay: growth inhibition of S. aureus wild type versus tarO mutant, primary screen, teichoic acid synthesis inhibitors, RN4220, OD600 (AID 463173)
# Details: S. aureus RN4220 wild type/DeltatarO growth, OD600, 18 h, stronger effect = lower value, screened at 18.75 µg/mL (by protocol)
row,Compound,survival
1,CCOC(=O)C1CCCN(S(=O)(=O)c2ccc3c(c2)CCN3C(=O)CC)C1 (stereo not given),inactive: 84%
2,Cc1cccc2sc(N3CCN(C(=O)CS(=O)(=O)c4ccc(F)cc4)CC3)nc12,inactive: 73%
3,N#Cc1cccc(Nc2ncnc3c2cnn3-c2cccc(Cl)c2)c1,inactive: 81%
4,Cc1ccc(Cl)cc1-n1ncc2c(NC3CCCCC3)ncnc21,inactive: 53%
5,CCOC(=O)c1c(C)[nH]c(CCC(=O)Nc2c(Cl)cc(OC)cc2OC)c1C,inactive: 72%
6,Cc1ccc(C(=O)O)cc1-n1c(C)ccc1-c1ccccc1,inactive: 64%
7,CCc1ccc(S(=O)(=O)c2cnc3ccc(OC)cc3c2N2CCCC(C)C2)cc1 (stereo not given),active: 2%
8,Cc1cc(C(=O)N2CCN(c3ccc(F)cc3)CC2)c2c(C)nn(-c3cccc(Cl)c3C)c2n1,inactive: 133%
9,COc1cc(OC)c2c(C)c(CC(=O)NCCc3ccccc3OC)c(=O)oc2c1,inactive: 85%
10,CCCc1nc2nc(C)c(NS(=O)(=O)c3ccc(F)cc3)c(=O)n2[nH]1,inactive: 80%
11,COc1ccc(CNC(=O)Cn2c(=O)nc(-c3ccccc3F)c3cc(Cl)ccc32)cc1OC,inactive: 127%
12,N#CC1=C(N)Oc2c(c(=O)oc3ccccc23)C12C(=O)Nc1ccccc12 (stereo not given),inactive: 120%
13,Cc1nnc(NCc2ccccc2)c2ccccc12,inactive: 103%
14,COC(=O)c1cccc(Nc2c(-c3ccc(OC)cc3)nc3nc[nH]n23)c1,inactive: 75%
15,Cc1ccc(C)c(NC(=O)Cn2nnc(C(=O)NCCc3ccccc3)c2N)c1,inactive: 79%
16,CCOC(=O)c1ccc(NC(=O)C(CC)Sc2nnc3c4ccccc4n(C)c3n2)cc1 (stereo not given),inactive: 130%
17,O=S1(=O)C=C(Sc2nc3ccccc3s2)c2ccccc21,active: 0%
18,Cc1cc(C)c(NC(=O)Cn2c(=O)n(Cc3ccc4c(c3)OCO4)c(=O)c3ccccc32)c(C)c1,inactive: 98%
19,CCC1=Nc2cc(C(=O)NCc3ccccc3Cl)ccc2Sc2ccc(C)cc21,inactive: 97%
20,CC1CCc2[nH]nc(C(=O)O)c2C1 (stereo not given),inactive: 114%
21,COc1ccc(NC(=O)CSC2=Nc3ccccc3C3=NC(CCC(=O)NC4CCCCC4)C(=O)N23)cc1Cl (stereo not given),inactive: 78%
22,COc1ccc(-c2noc(-c3nnn(-c4ccc(C)cc4C)c3C)n2)cc1,inactive: 127%
23,COc1ccc(S(=O)(=O)c2cn(C)c3cc(N4CCCCCC4)c(F)cc3c2=O)cc1,inactive: 91%

row,Compound,survival
1,Cc1ccc(-n2nc(CO)c(C(=O)NCc3cccnc3)n2)cc1C,inactive: 111%
2,CCN(CC)C(NC(=O)c1ccccc1)C(=O)c1ccccc1 (stereo not given),inactive: 106%
3,CCOc1ccccc1CNS(=O)(=O)c1ccc(-c2cnc(C3CC3)o2)cc1,inactive: 70%
4,CCOC(=O)c1cc(NC(=O)c2ccccc2)c(=O)n2c1oc1ccc(Cl)cc12,inactive: 134%
5,Cc1ccc(NC(=O)CSc2nncn2C)c(C)c1,inactive: 75%
6,O=C(Nc1cc(F)ccc1F)C1CCN(C(=O)c2cnn(-c3ccccc3)c2-n2cccc2)CC1,inactive: 72%
7,CC1CC(C)CN(C(=O)c2ccc(Cl)cc2)C1 (stereo not given),inactive: 117%
8,COc1ccc(Cl)c2sc(NC(=O)c3ccc(S(=O)(=O)N4CCCC4)cc3)nc12,inactive: 73%
9,COc1ccc(OC)c(C2CC(=O)Nc3c2c(=O)n(C)c2ncnn32)c1 (stereo not given),inactive: 142%
10,COc1ccccc1NC(=O)CSCc1cc(=O)c2cccc(Cl)c2[nH]1,inactive: 67%
11,COc1ccccc1Cn1c(C2CC(=O)N(c3ccccc3OC)C2)nc2ccccc21 (stereo not given),inactive: 75%
12,O=C(CSC1=Nc2ccccc2C2=NC(Cc3ccccc3)C(=O)N12)Nc1cccc(Cl)c1 (stereo not given),inactive: 76%
13,CCOC(=O)c1c(-c2ccccc2)oc2ccc(NS(=O)(=O)c3ccc(C)cc3)cc12,inactive: 28%
14,CCN1C(=O)c2ccccc2Sc2ccc(NC(=O)Nc3cc(C)cc(C)c3)cc21,inactive: 62%
15,CCc1ccc2occ(CC(=O)Nc3c(C(=O)c4ccccc4)oc4ccccc34)c2c1,inactive: 104%
16,Cc1ccc(CNC(=O)c2cc3sc(Cl)cc3n2C)cc1,inactive: 89%
17,Cc1ccnc(NC(c2cccc(O)c2)c2ccc3ccc(C)nc3c2O)c1 (stereo not given),inactive: 74%
18,COc1ccc(CN(CCN)C2CC(C)N(C)CC2C)cc1 (stereo not given),inactive: 105%
19,O=S(=O)(Nc1ccc2nc[nH]c2c1)c1ccccc1,inactive: 103%
20,O=C(Cn1c(=O)n(-c2ccccc2)c(=O)c2c3c(sc21)CCC3)c1ccc(Br)cc1,inactive: 87%
21,Cc1ccc2nc(-c3ccc(Cl)c(NC(=O)COc4ccc([N+](=O)[O-])cc4)c3)oc2c1,inactive: 60%
22,Cc1ccc(C(C)C)cc1S(=O)(=O)Nc1ccccn1,inactive: 95%
23,CCOC(=O)c1c(C)oc2ccc(N(C(=O)c3ccncc3)S(=O)(=O)c3ccc(F)cc3C)cc12,inactive: 95%

row,Compound,survival
1,COc1cccc(NC(=O)c2cnc(SCC(=O)N3CCCc4ccccc43)n(C)c2=O)c1,inactive: 54%
2,COc1ccccc1N1CCN(S(=O)(=O)c2cc(C(=O)Nc3ccc(Oc4ccccc4)cc3)ccc2F)CC1,inactive: 75%
3,CC(C)CCNC(=O)CCCn1c(=O)c2cccn2c2ccccc21,inactive: 80%
4,Cc1cccc(CS(=O)(=O)Cc2ccc(C(=O)NCc3ccc(F)cc3)o2)c1,inactive: 88%
5,CCOc1cc(S(=O)(=O)NC2CC2)c(OCC)cc1-n1cnnn1,inactive: 102%
6,CCCN1CC=C2C(C1)C(c1ccc(C(=O)OC)cc1)C(C#N)=C(N)C2(C#N)C#N (stereo not given),inactive: 108%
7,Cc1noc(-c2ccc(-c3noc(-c4ccc(Cl)cc4)n3)cc2)n1,inactive: 87%
8,Cc1cc(C)cc(NC(=O)CN2C(=O)c3ccccc3Sc3ccc(C(=O)N4CCCC4)cc32)c1,inactive: 71%
9,Cc1ccc(C)c(CN2CCCN(Cc3ccccc3C)S2(=O)=O)c1,inactive: 76%
10,CC1C=CCC2C(=O)N(c3ccc(OC(=O)c4ccco4)cc3)C(=O)C12 (stereo not given),inactive: 104%
11,COc1ccc(CCn2c(-c3ccco3)nc3ccccc3c2=O)cc1OC,inactive: 96%
12,COc1ccccc1NC(=O)CSc1nnc2c(n1)[nH]c1ccccc12,inactive: 107%
13,O=C(CN1C(=O)CCc2cc(Br)ccc21)Nc1ccc(OC(F)(F)F)cc1,inactive: 88%
14,CCOC(=O)c1ccc(Nc2c(-c3ccc(N(C)C)cc3)nc3nc[nH]n23)cc1,inactive: 75%
15,COc1ccc(NC(=O)c2cnc3cc(C)ccn3c2=O)c(OC)c1,inactive: 102%
16,COc1cccc(CNC(=O)c2nn(C)c3c2CSc2ccccc2-3)c1,inactive: 84%
17,COc1ccc(Cn2c(=O)n(-c3ccc(C)cc3)c(=O)c3c2c2cc(C)ccc2n3C)cc1,inactive: 143%
18,Cc1c(CN2CCCCC2)c(O)n(CCO)c(=O)c1C#N,inactive: 106%
19,CCN1C(=O)C2C(c3ccccc3C)NC(Cc3ccc(O)cc3)(C(=O)OC)C2C1=O (stereo not given),inactive: 110%
20,CC(Oc1ccccc1)C(=O)NCc1ccccn1 (stereo not given),inactive: 108%
21,COc1ccccc1Cc1nc2ccccc2nc1SCC(=O)NCc1ccc(C)cc1,inactive: 73%
22,COc1ccc(C)cc1NC(=O)Cn1nc(N2CCN(c3ccccc3OC)CC2)ccc1=O,inactive: 83%
23,Cc1noc(C)c1S(=O)(=O)N(CC(=O)NCc1ccccc1)c1ccc(C(C)C)cc1,inactive: 83%

row,Compound,survival
1,COc1ccccc1CNC(=O)C(=O)NCC(c1cccnc1)N1CCN(c2ccccc2)CC1 (stereo not given),inactive: 77%
2,COc1ccc(-c2nc(SCC(=O)NC3CCCC3)c(-c3ccc(F)cc3)[nH]2)cc1OC,inactive: 68%
3,O=C(COCc1cc(-c2ccco2)on1)Nc1cc(Cl)ccc1O,active: -2%
4,O=C(Nc1ccc2oc(-c3cccnc3)nc2c1)c1ccccc1F,inactive: 86%
5,CC(C)c1nc2ccccc2c(=O)[nH]1,inactive: 98%
6,CC(=O)N1CCCc2cc(S(=O)(=O)Nc3ccc(Cl)cc3F)ccc21,inactive: 63%
7,COCCNC(=O)CCn1nc(-c2ccc(Cl)cc2)c2ccccc2c1=O,inactive: 90%
8,COc1ccc(CC(=O)N2CCc3c([nH]c4ccccc34)C2c2ccc(SC)cc2)cc1 (stereo not given),inactive: 71%
9,CC1CCN(C(c2ccc(F)cc2)c2sc3nc(-c4ccco4)nn3c2O)CC1 (stereo not given),inactive: 63%
10,COc1ccc(C(=O)N2CCN(C(=O)COc3ccccc3)CC2)cc1OC,inactive: 79%
11,COc1ccc(-c2nc3ccccc3s2)cc1NC(=O)c1cc(OC)c(OC)c(OC)c1,inactive: 82%
12,CCN(CC)c1nc(Nc2ccc(Cl)cc2)nc(OCC#N)n1,inactive: 113%
13,COc1ccc(NC(=O)C(NC(=O)/C=C\c2ccc3c(c2)OCO3)c2ccc(C)cc2)cc1 (stereo not given),inactive: 80%
14,CCc1ccc(-n2c(N3CCN(c4ccc(F)cc4)CC3)nc3ccccc3c2=O)cc1,inactive: 85%
15,O=C(c1ccc2c(c1)N(Cc1ccccc1)C(=O)c1ccccc1S2(=O)=O)N1CCOCC1,inactive: 84%
16,COc1ccc(-c2nc3n(n2)C(c2ccc(O)cc2)C(C(=O)Nc2cccnc2)=C(C)N3)cc1OC (stereo not given),inactive: 92%
17,Cc1ccc2c(c1)c1c3n2CCN=C3CCC1,inactive: 112%
18,Cc1cc(S(=O)(=O)Nc2cc3c(cc2N2CCOCC2)n(C)c(=O)c(=O)n3C)ccc1F,inactive: 71%
19,COc1ccccc1CNc1nccn(-c2ccc(F)cc2)c1=O,inactive: 76%
20,CCCn1c2ccccc2c2cnn(CC(=O)NCC3CCN(Cc4ccccc4C)CC3)c(=O)c21,active: 14%
21,CCOc1ccc(CCNC(=O)NCc2noc3ccc(C)cc23)cc1,inactive: 91%
